Assay results from paper PMC4336329 (PLoS ONE, 2015).
Hit rate of the full screen: of about 310,000 compounds, about 14,000 (4.5%) showed an effect of 50% or more. The effect is printed as a negative number. Some of the results follow.

biological target: human ether-à-go-go-related gene (hERG) potassium channel (human, UniProt Q12809); test: primary screen, population patch clamp on CHO cells stably expressing hERG
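Further: peak tail current of the secondary pulse compared with the same well before compound.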

human ether-à-go-go-related gene (hERG) potassium channel, sequence (Q12809 whole entry, looked up): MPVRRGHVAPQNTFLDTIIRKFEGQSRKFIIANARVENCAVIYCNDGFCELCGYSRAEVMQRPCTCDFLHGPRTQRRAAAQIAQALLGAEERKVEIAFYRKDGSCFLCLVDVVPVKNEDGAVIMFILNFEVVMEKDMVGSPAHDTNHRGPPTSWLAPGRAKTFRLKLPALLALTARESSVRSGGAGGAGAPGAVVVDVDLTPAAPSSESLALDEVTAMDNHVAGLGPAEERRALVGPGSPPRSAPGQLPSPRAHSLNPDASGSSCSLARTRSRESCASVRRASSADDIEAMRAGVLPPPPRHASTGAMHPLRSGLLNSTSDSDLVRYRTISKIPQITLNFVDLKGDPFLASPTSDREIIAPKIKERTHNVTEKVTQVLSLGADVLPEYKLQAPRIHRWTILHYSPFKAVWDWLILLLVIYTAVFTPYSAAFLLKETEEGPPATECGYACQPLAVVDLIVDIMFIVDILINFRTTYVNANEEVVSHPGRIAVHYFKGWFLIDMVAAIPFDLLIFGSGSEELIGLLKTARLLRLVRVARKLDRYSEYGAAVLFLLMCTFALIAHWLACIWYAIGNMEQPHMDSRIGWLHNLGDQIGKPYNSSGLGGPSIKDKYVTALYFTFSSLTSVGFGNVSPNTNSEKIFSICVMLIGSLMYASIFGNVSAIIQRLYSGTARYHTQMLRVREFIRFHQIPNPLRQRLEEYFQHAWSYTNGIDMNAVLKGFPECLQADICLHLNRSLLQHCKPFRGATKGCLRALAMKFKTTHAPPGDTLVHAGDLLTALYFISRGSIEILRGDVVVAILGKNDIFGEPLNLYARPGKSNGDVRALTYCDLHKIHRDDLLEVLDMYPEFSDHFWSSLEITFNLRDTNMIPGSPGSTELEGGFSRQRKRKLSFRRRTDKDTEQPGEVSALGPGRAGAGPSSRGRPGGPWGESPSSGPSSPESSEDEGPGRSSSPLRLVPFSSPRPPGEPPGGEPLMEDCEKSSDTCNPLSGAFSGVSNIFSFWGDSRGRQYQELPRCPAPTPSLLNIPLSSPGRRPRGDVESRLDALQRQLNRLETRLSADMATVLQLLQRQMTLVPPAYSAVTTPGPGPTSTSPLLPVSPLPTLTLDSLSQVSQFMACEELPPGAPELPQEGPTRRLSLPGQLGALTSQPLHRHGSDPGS

Row | Structure (SMILES) | hERG current change (%, negative = inhibition) at 10uM
1 | O=C(Nc1cccc(-c2cnc3ccccc3n2)c1)c1ccco1 | -32.6%
2 | COCc1cc(C)nc(OCC(=O)N/N=C/c2ccc(-c3cc([N+](=O)[O-])ccc3C)o2)c1C#N | -23.6%
3 | CCCN1CCCc2ccccc21.Cl | 7.61%
4 | CCCN(CCC)CCCNC(=O)CC1Nc2ccccc2NC1=O (stereo not drawn) | 10.5%
5 | O=C(O)CCc1nn2c3ccccc3n(CCN3CCCCC3)c2nc1=O | 3.59%
6 | CCOc1ccc2nc(NC(=O)COC)sc2c1 | -11%
7 | c1ccc(Cn2cc(CN3CCCCO3)c(-c3ccc4c(c3)OCO4)n2)cc1 | -1.3%
8 | Cc1csc(=O)n1CC(=O)OCC(=O)NNC(=O)c1ccc(Cl)cc1 | -7.47%
9 | COc1ccccc1Nc1nc(-c2cccs2)cs1 | -10.7%
10 | O=C(N=NC(=O)c1ccc2c(O)n(CC3CCCO3)c(O)c2c1)c1cccnc1 (stereo not drawn) | -6.05%
11 | O=C1CCN(Cc2ccccc2)CCN1CCO | 20.5%
12 | COc1ccc(C(=O)N2CCCC(c3nc(-c4ccc(C)o4)no3)C2)cc1OC (stereo not drawn) | -8.29%
13 | CCC(=O)Nc1ccc(-c2nnc(SCC(=O)N3CCCCC3)n2C)cc1 | -9.31%
14 | Clc1cc(Cl)c(Cl)c(Cl)c1Cl | 8.83%
15 | CCOc1ccccc1-c1nnc(CS(=O)(=O)c2ccccc2)o1 | -52.5%
16 | COc1ccc(OCCNC(=O)c2ccc(C)cc2)cc1 | 6.99%
17 | O=C(Cn1c(=O)oc2cc(S(=O)(=O)N3CCCC3)ccc21)NC1CCCc2ccccc21 (stereo not drawn) | 5.12%
18 | Cc1ccc(NC(=O)C(=O)NCCOc2ccccc2Cl)cc1 | 16.3%
19 | COCC(=O)Nc1nnc(SCC(=O)N2C(C)CCCC2C)s1 (stereo not drawn) | 15.2%
20 | CCCCN(C)CCCNC(=O)c1cc(=O)[nH]c2ccc(S(=O)(=O)N3CCCCC3C)cc12 (stereo not drawn) | 13.9%
21 | COCCn1nnnc1CN1C2CCCC1CC(NC(C)=O)C2 (stereo not drawn) | -6.26%
22 | O=C1CC(C(=O)N2CCN(c3ccccn3)CC2)CN1Cc1ccccc1Cl (stereo not drawn) | -42.3%
23 | Nc1nnc(-c2cc3ccccc3oc2=O)s1 | 15.6%

Row | Structure (SMILES) | hERG current change (%, negative = inhibition) at 10uM
24 | O=C(Nc1cccc(C(F)(F)F)c1)C(Sc1cccc[n+]1[O-])c1ccccc1 (stereo not drawn) | -42.7%
25 | COc1cccc(C(=O)N/N=C/c2ccc(OC3CSC3)cc2)c1 | 5.4%
26 | O=C(NCCCN1CCCCC1)C1CCC(CNS(=O)(=O)c2cccc3nsnc23)CC1 (stereo not drawn) | 9.74%
27 | COc1cc(-c2noc(-c3ccco3)n2)cc(OC)c1OC | 11%
28 | Cc1[nH]c2ccc(C(=O)N3CCCCC3)cc2c1C | -20.7%
29 | Cc1cc(NS(=O)(=O)c2ccc(NS(=O)(=O)c3ccc(Br)cc3)cc2)no1 | 9.85%
30 | Clc1cccc(Nc2c3c(nc4ncnn24)CCC3)c1 | -23.6%
31 | Cc1ccc(N2C(=O)CC(N3CCN(c4ccccn4)CC3)C2=O)cc1 (stereo not drawn) | -6.04%
32 | Cc1cc(NC(=O)CSCC(=O)Nc2ccc(Cl)c(C(F)(F)F)c2)no1 | -12.6%
33 | CC(=O)Cc1nsc(NC(=O)c2ccc(-c3cc(Cl)ccc3Cl)o2)n1 | 18.5%
34 | Cc1ccc(-n2cc[nH]c2=S)c(C)c1 | 18.9%
35 | O=C(Nc1ccc([N+](=O)[O-])cc1)Nc1ccc2c(c1)OCCO2 | 24.6%
36 | CCOC(=O)c1ccc(NC(=S)N2CCCC(C)C2)cc1 (stereo not drawn) | -28.4%
37 | COc1ccccc1OCC(=O)N(Cc1nc(-c2ccccc2)no1)C1CCCCC1 | 9.46%
38 | Cc1cc(C)n(CC(O)Cn2cnc3c2c(=O)n(C)c(=O)n3C)n1 (stereo not drawn) | -8.95%
39 | CC(=O)c1ccc(Cc2ccc(C(C)=O)cc2)cc1 | 6.02%
40 | O=C(CCc1ccc(S(=O)(=O)NC2CCCCC2)cc1)N(Cc1ccccc1)Cc1ccccc1 | 5.41%
41 | COc1cc(N=c2oc3c(C)ncc(CO)c3cc2C(N)=O)cc(OC)c1OC | -5.75%
42 | COc1ccc(NC(=O)C(CC(C)C)NC(=O)C2CCCCC2)c(OC)c1 (stereo not drawn) | -3.27%
43 | Cc1cc(C)c(OCC(O)CN2CCN(c3ccccn3)CC2)c(C)c1.Cl (stereo not drawn) | -58.3%
44 | CCn1c(SCC(=O)NC2CCCCC2)nnc1-c1cccnc1 | 10.5%
45 | Cc1cc(S(=O)(=O)NCC(c2ccc3c(c2)OCO3)N2CCOCC2)ccc1F (stereo not drawn) | -20.7%
46 | COCn1c(-c2cccc(Br)c2)nc2ccccc21 | -37.6%

Row | Structure (SMILES) | hERG current change (%, negative = inhibition) at 10uM
47 | COc1cc(NC(=O)c2cc(-c3cccc(O)c3)on2)cc(OC)c1OC | -9.97%
48 | CSc1nc(C)c(CCOC(=O)c2cccc(C)c2)c(=O)[nH]1 | 26.9%
49 | O=C1/C(=C\c2ccc(Br)cc2)SC(=S)N1NS(=O)(=O)c1ccccc1 | 20.2%
50 | COc1ccc(CC(=O)N(C)C2CCCN(Cc3ccccc3F)C2)cc1OC (stereo not drawn) | -4.9%
51 | CC(C)(C)c1ccc2c(c1)OC(C(=O)N/N=C\c1ccc(-c3cccc(C(=O)O)c3)o1)CO2 (stereo not drawn) | -4.89%
52 | CC1(C)CC(=O)C(C2C3=C(CC(C)(C)CC3=O)Oc3ccccc32)=C(O)C1 (stereo not drawn) | 14.2%
53 | CN(Cc1cccs1)C(=O)c1cccc(S(=O)(=O)N2CCCCCC2)c1 | -59.9%
54 | COc1cc(SC)ccc1C(=O)Nc1ccc2c(c1)OCCO2 | -18.4%
55 | COc1cccc(CN(C(=O)c2cccc(OC)c2)C2CCS(=O)(=O)C2)c1 (stereo not drawn) | -7.02%
56 | CN(CC(=O)Nc1ccccc1Br)C(=O)CCc1nc2ccccc2c(=O)[nH]1 | -15.8%
57 | CCCCCOC(=O)C1=C(C)NC(=O)NC1c1ccc([N+](=O)[O-])cc1 (stereo not drawn) | 13%
58 | N#CCCCSc1ncccc1-c1nc2ccccc2[nH]1 | -17.7%
59 | N#Cc1ccc(C2N=C(c3ccccc3)NO2)cc1 (stereo not drawn) | -1.1%
60 | Cc1cc(C)nc(NS(=O)(=O)c2ccc(NC(=O)COc3ccccc3F)cc2)n1 | 4.9%
61 | Nc1nsnc1C(=O)NCCO | 14.7%
62 | CCOC(=O)c1ccc(S(=O)(=O)N2CCN(C(C)=O)CC2)cc1 | 0.122%
63 | COc1cccc(CNC(=O)c2cccc(NC(=O)CC3SC(N4CCCCC4)=NC3=O)c2)c1 (stereo not drawn) | -1.28%
64 | N#Cc1c(N2CCCC2)nc(N)c2c(N)nc(N3CCCC3)cc12 | 11.2%
65 | Cc1ccc(C(=O)O/N=C(\N)Cc2ccc([N+](=O)[O-])cc2)c(Cl)c1 | -46.3%
66 | CN(C)c1ccc2c(c1)OC(N)=C(C#N)C2c1cccc(F)c1 (stereo not drawn) | 6.95%
67 | COc1ccc(N/N=C(/Oc2ccc([N+](=O)[O-])cc2)C(C)=O)cc1 | -12.7%
68 | O=C(O)CSCC(=O)N1CCCN(c2ccc(C(F)(F)F)cn2)CC1 | 22.9%
69 | COc1ccc(CNC2c3ccccc3-c3ccccc32)cc1OC | -36.2%

Row | Structure (SMILES) | hERG current change (%, negative = inhibition) at 10uM
70 | O=[N+]([O-])c1cccc(-c2cc3ccccc3[nH]2)c1 | 18.7%
71 | Cc1ccc([N+](=O)[O-])c(OCC(O)CNC(C)(C)C)c1.Cl (stereo not drawn) | 3.01%
72 | O=C(/C=C/c1ccco1)NCc1ccco1 | 18.5%
73 | N#Cc1ccc(/C=C(\C(=O)C(=O)O)c2ccc3ccccc3n2)cc1 | -7.34%
74 | O=C(/C=C/N1CCOCC1)c1coc2ccccc12 | 1.11%
75 | Cc1ccc(NC(=O)CN2C(=O)C3CC=CCC3C2=O)cc1S(=O)(=O)N1CCOCC1 (stereo not drawn) | 5.84%
76 | CCn1cc(CNC(=O)c2cc(COc3ccc(F)cc3Cl)on2)cn1 | -11.1%
77 | COc1cccc(N2CCN(C3CC(=O)N(c4ccc(F)c(Cl)c4)C3=O)CC2)c1 (stereo not drawn) | -12.6%
78 | Cc1ccccc1OCC(=O)OCC(=O)NCc1ccccc1 | 8.83%
79 | O=C(C1CC(c2ccccc2O)=NO1)N1CCCCC1 (stereo not drawn) | 12.6%
80 | Cc1ccc(C(=O)Nn2cnnc2)cc1 | 10.8%
81 | COc1ccc(NC(=O)C2CCCN(S(=O)(=O)c3ccc4[nH]c(=O)ccc4c3)C2)cc1OC (stereo not drawn) | 16.6%
82 | COc1ccc(CCNC(=O)Cn2cccc2C(=O)c2ccccc2C)cc1OC | -16.3%
83 | Cc1c(O)nc(SC2CC(=O)N(c3cc(Cl)cc(Cl)c3)C2=O)[nH]c1=O (stereo not drawn) | 17%
84 | COc1cc(C2SCC(=O)N2Cc2ccccc2)ccc1O (stereo not drawn) | 1.41%
85 | O=C1CCCC/C1=C/NCc1ccccc1 | 16.7%
86 | O=C(C1CCC(CNS(=O)(=O)c2ccccc2)CC1)N1CCCCC1 (stereo not drawn) | -1.89%
87 | CCc1ccc(CN(C)CC(=O)Nc2sccc2C#N)cc1 | -16.4%
88 | Cc1ccc(-c2nc(CS(=O)CC(=O)N3CCC4(CC3)OCCO4)c(C)o2)cc1 (stereo not drawn) | -4.68%
89 | CCOc1ccc(/C=N/N2C(C)CCCC2C)cc1OC (stereo not drawn) | -3.11%
90 | Cc1ccc(-c2nnn(CC(=O)N(CCO)C(C(=O)NC3CCCCC3)c3ccncc3)n2)o1 (stereo not drawn) | 13.9%
